Data as given in PubChem BioAssay AID1508624 (National Center for Advancing Translational Sciences (NCATS), 2021).
About 120 (0.25%) of roughly 48,000 compounds were called active. Roughly 4% stayed inconclusive and do not appear here. Calls follow the shape of the dose curve; as a rule, active = well fitted activation curve with a large enough effect; inconclusive = small, poorly fitted or top-dose-only effect, or another doubt; inactive = no such curve, though single readings can be large or run the other way. The list shows a part of the results.

Assay: Primary qHTS for Identification of Small Molecule Activators of Huntingtin-Antisense Promoter Activity; also: nearly all actives have a fitted effect of over 55% in size
Conditions: HEK293 HTT-AS promoter firefly luciferase reporter, 24 h; series mostly up to 57.5 µM; activity change, positive = activation: at the top concentration
How it was run: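 Firefly luciferase signal from promoter-reporter HEK293 cells was scaled between vehicle (0%) and zero RLU (-100%). Compounds were tested at final concentrations of up to 57.5 uM over 24 h at 37 degrees C. PTC124 at 50 uM final served as control inhibitor.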

Activity change, positive = activation, inactive:
CC(=O)c1ccc(N2CCN(C(=O)CCCCn3c(=O)[nH]c4ccccc4c3=O)CC2)cc1 -13%
Cc1ccc(NC(=O)CCC(=O)N2Cc3ccccc3Oc3ncccc32)cc1F -16.8%
O=C(NCc1ccc(F)cc1)c1ccc2nc(N3CCCCC3)sc2c1 -65.3%
Cc1cccc(Cn2c(=O)n(CCC(=O)NCCc3ccc(Cl)cc3)c(=O)c3sccc32)c1 -11.1%
CCOc1ccc(NC(=O)c2ccc3c(c2)CCN3S(=O)(=O)c2ccc(Cl)cc2)cc1 -0.925%
Cc1cc(-c2ccc(C)c(S(=O)(=O)NCC3CCN(Cc4ccc(F)cc4)CC3)c2)on1 -18.8%
O=C(O)c1c(CNCc2cccc(F)c2)c2ccccc2n1Cc1ccccc1 -15.3%
O=C(NCC(c1ccc2c(c1)OCO2)N1CCOCC1)C(=O)Nc1cccc(Cl)c1 (configuration not stated) -30.7%
COc1ccc(OC)c(CNC(=O)c2nn(C)c3c2CSc2ccccc2-3)c1 -13.8%
Fc1cccc(Cl)c1Cn1c(-c2cccs2)nc2ccccc21 -33.5%
Cc1cccc(NC(=O)C(=O)NCC(c2cccnc2)N2CCc3ccccc3C2)c1C (configuration not stated) -17.2%
CCOc1ccc(NC(=O)c2ccc(F)c(S(=O)(=O)N(CC)Cc3ccccc3)c2)cc1 -39.8%
CCOC(=O)c1scc(-c2ccc(C)cc2)c1S(=O)(=O)N1CCN(c2ccccc2F)CC1 -14.9%
O=C(CCC1N=C2c3ccccc3N=C(SCc3cccc(F)c3)N2C1=O)NCc1cccs1 (configuration not stated) -22%
Cc1ccc(Cl)cc1N1CCN(C(=O)CCNS(=O)(=O)c2ccc3c(c2)CCN3C(=O)C2CC2)CC1 -38.1%
Cc1ccc(NC(=O)NCc2cccn2Cc2ccccc2)c(C)c1 -8.53%
CCCCCSc1ncnc2c1sc1nc(N3CCOCC3)c3c(c12)CCCC3 1.77%
CCC(C)NC(=O)Cn1c(=O)n(-c2ccc(C)c(C)c2)c(=O)c2c3c(sc21)CCCCC3 (configuration not stated) -9.13%
COc1ccc(OC)c(NC(=O)c2cc(S(=O)(=O)NCCc3ccc(Cl)cc3)ccc2F)c1 -27%
CCOc1ccc(OCC)c(NC(=O)c2ccc(-c3ccccc3)s2)c1 -1.04%
Cc1nc2nc(SCC(=O)NC3CCC(C)CC3)nn2c(C)c1Cc1ccccc1 (configuration not stated) -0.126%
CCCCc1nn2c(=O)cc(COC(=O)C3CCCCC3)nc2s1 8.04%
O=C(OOC(=O)c1ccccc1)c1ccccc1 -2.39%
COC(=O)c1ccc(-c2nc3cc(NC(C)=O)ccc3o2)cc1 16.3%
CCOc1ccc(CCNC(=O)c2sc3ncccc3c2-n2cccc2)cc1OCC -15%
Nc1cc(=O)[nH]c(N)n1 -4.72%
Cc1ccc(N2CC(NC(=O)c3ccc(S(=O)(=O)N4CCCC4)cc3)CC2=O)cc1C (configuration not stated) -18.1%
Cc1cc(C)cc(-n2ccn(CC(=O)Nc3cc(C)ccc3C)c(=O)c2=O)c1 -2.64%
CCn1cc(C(=O)NCCCN2CCCC(C)C2)c(=O)c2cc(S(=O)(=O)N(C)C3CCCCC3)ccc21 (configuration not stated) -7.23%
Cc1cccc(CS(=O)(=O)Cc2ccc(C(=O)NCCc3ccccc3)o2)c1 -20.5%
COc1ccc(CCNc2nc(-c3ccc(OC)c(OC)c3)cc(C(F)(F)F)n2)cc1OC -36.2%
CCOC(=O)c1c(S(=O)(=O)N2CCCC(C(=O)NCc3cccc(OC)c3)C2)c(C)n(C)c1C (configuration not stated) 5.93%
CCOc1ccc(N2CC(c3nc4ccccc4n3Cc3ccccc3F)CC2=O)cc1 (configuration not stated) 1.52%
COc1ccc(-c2nnc(SCC(=O)NC3CCCC3)nc2-c2ccc(OC)c(OC)c2)cc1OC -14.8%
CN(C)CCCN=c1c2ccccc2n(C)c2[nH]c(=O)n(C)c(=O)c12 -31.4%
O=C(O)c1nc(=O)[nH]c(=O)[nH]1 -19.1% [at 25.1 µM, percent change from vehicle, -100% = no light]
COc1cccc(OC)c1C(=O)Nc1cccc(-c2cn3ccsc3n2)c1 8.14%
O=C(NCc1ccccc1)C1CCN(S(=O)(=O)c2ccc3c(c2)CCCN3C(=O)C2CCC2)CC1 -22%
CCOc1ccc(C(=O)NCC(c2ccco2)S(=O)(=O)c2cccs2)cc1 (configuration not stated) 26%
Cc1ccccc1NC(=O)Cn1c(=O)n(Cc2ccccc2)c(=O)c2sc3ccccc3c21 -7.36%
CCN(Cc1ccccc1)C(=O)c1nn(-c2ccc(OC)cc2)c(=O)c2c1c1ccccc1n2C -34.4%
Cc1ccccc1-c1nn2c(=O)cc(CN3CCN(S(=O)(=O)c4ccc(Cl)cc4)CC3)nc2s1 1.4%
COC(=O)c1ccc(C(=O)OC)c(NC(=O)c2cnn3c(C(F)F)cc(-c4ccccc4)nc23)c1 18.2%
COc1ccc(-n2c(=O)c3ccccc3n(Cc3cccc(C)c3)c2=O)cc1 -31.2%
CCCN(c1ccc(C(C)C)cc1)S(=O)(=O)c1ccc2c(c1)oc(=O)n2CC(=O)OCC -34.4%
COc1cccc(Cn2c(CNS(=O)(=O)c3ccc(C(C)(C)C)cc3)nc3cccnc32)c1 -23.2%
COc1ccc(-c2nc(CNC(=O)Nc3ccccc3)c(C)o2)cc1 -11%
COc1ccccc1N1CCN(C(=O)c2cc(S(=O)(=O)N3CCC(C)CC3)cn2C)CC1 -19.1%
O=C(Nc1nnc(S(=O)(=O)Nc2ccccc2)s1)C1CCCCC1 -22.4%
NC(=O)CCCCC1CCSS1 (configuration not stated) -1.86%
CCCSc1nnc2[nH]c(=O)cc(C)n12 -15.8%
CCOC(=O)Cn1c(=O)n(CC2CCCO2)c2nc(-c3ccc(C(C)C)cc3)nc(C(N)=O)c21 (configuration not stated) -7.51%
Cc1ccccc1N(C)S(=O)(=O)c1nnc(NC(=O)C(C)C)s1 -20.5%
COc1ccccc1N1CCN(CCCCNC(=O)c2ccc(-c3ccc(C(C)=O)cc3)cc2)CC1 -12.6%
CCOC(=O)c1ccc(N2C(=O)c3n[nH]c(C)c3C2c2ccc(OCC)cc2)cc1 (configuration not stated) -42.6%
COc1ccc(NC(=O)Cn2c(=O)n(CCCC(=O)NCCc3ccc(C)cc3)c(=O)c3ccccc32)cc1Cl -3.24%
COc1ccc(N2CCN(c3ncnc4onc(-c5ccc(F)cc5)c34)CC2)cc1 -23.2%
Cc1ccc(CCNC(=O)c2ccc3c(c2)N(Cc2ccccc2)C(=O)c2ccccc2S3=O)cc1 (configuration not stated) -3.95%
Cc1cccc(NC(=O)c2ccc(F)c(S(=O)(=O)N3CCC4(CC3)OCCO4)c2)c1 -9.37%
COc1cc(OC)c(NC(=O)N2CCc3cc(OC)c(OC)cc3C2CC(=O)O)cc1Cl (configuration not stated) -5.17%
CC(C)Cn1c(=O)c2ccccc2n2c(CCC(=O)N3CCN(c4ccccc4)CC3)nnc12 -10.9%
CC(C)c1ccc(C2c3c(-c4ccccc4O)n[nH]c3C(=O)N2Cc2ccncc2)cc1 (configuration not stated) -54.3%
CCCCOC(=O)CSc1nnc(-c2ccc(C)cc2)o1 -80.8%
Cc1ccc2c(c1)Cc1c(nc(-c3ccc(Cl)cc3)nc1SCC(=O)N1CCCCC1)O2 3.52%
Cc1ccc2onc(CNC(=O)Nc3cc(F)ccc3F)c2c1 -9.89%
Cc1ncc(-c2ccnc(Nc3ccc(S(C)(=O)=O)cc3)n2)n1C(C)C -34.3%
Cc1ccc(Cl)cc1NC(c1ccc(F)cc1)c1nnc(-c2ccccc2)o1 (configuration not stated) -34.2%
Cc1ccc(NC(=O)C(CC(C)C)NS(=O)(=O)c2ccc3c(c2)oc(=O)n3C)c(C)c1 (configuration not stated) -10.9%
NS(=O)(=O)c1cc2c(cc1C(F)(F)F)NCNS2(=O)=O -20.5%
CC(C)NC[C@@H](O)COc1ccc(CC(N)=O)cc1 -2.21%
COc1ccc(Nc2cc(C)nc3c(C)c(C)ccc23)cc1 -11.1%
CCc1ccc(C2CC(=O)c3c([nH]c(C(=O)OCCOc4ccccc4)c3C)C2)cc1 (configuration not stated) -40%
Nc1nc(Cl)nc2c1ncn2[C@@H]1O[C@H](CO)[C@@H](O)[C@H]1F -27.5%
CC(=O)N1CCc2c(sc3c2c(=O)n(CCc2ccccc2)c(=O)n3CC(=O)Nc2ccc(C)c(F)c2)C1 -27.2%
COc1cccc2c1Oc1ncccc1N(c1ccc(C(=O)NCc3ccccc3Cl)s1)C2 -23.8%
COc1ccc(NC(=O)Cn2c(=O)n(-c3cccc(C(F)(F)F)c3)c(=O)c3sccc32)cc1 -32.9%
Cc1[nH]c2ccccc2c1C1(O)C(=O)N(Cc2ccccc2Cl)c2ccccc21 (configuration not stated) -19.8%
CCC1CN(C(=O)Nc2ccc(Br)cc2F)c2ccccc2S1 (configuration not stated) -0.58%
O=C(NCC(c1ccc(Cl)cc1)N1CCCCC1)c1ccccc1F (configuration not stated) -4.27%
CCOc1ccc(OCC)c(NC(=O)CCc2nc3cccnc3n2-c2ccccc2)c1 -9.05%
COc1ccccc1N1CCN(C(=O)CSc2n[nH]c(-c3ccccc3Cl)n2)CC1 -18.3%
COC(=O)C(NC(=O)CCc1c(C)nc2c(c(C)nn2-c2ccccc2)c1C)C(C)C (configuration not stated) -6.53%
Cc1ccccc1NC(=O)[C@H](CSCc1ccccc1)N1Cc2ccccc2C1=O -12.1%
COc1cc(OC)cc(C(=O)Nc2ccc3nc(Nc4cccc(C(F)(F)F)c4)cc(C)c3c2)c1 -45.6%
C#CCn1c(C2CC(=O)N(c3ccc(OCC)cc3)C2)nc2ccccc21 (configuration not stated) 5.59%
CCN(CC)C(=O)C1CCN(c2nnc(C)c3c(C)n(-c4ccc(Cl)cc4)nc23)CC1 -7.14%
O=C(NCc1ccc(F)cc1)c1cnc(N2CCCCC2)c2ccccc12 -18.2%
O=S1(=O)c2ccccc2N(Cc2cccc(F)c2)c2ccccc21 -39.8%
COc1ccc(NC(=O)c2ccco2)cc1NC(=O)c1cc(Cl)ccc1OC -27.1%
CCCN(CCC)C(=O)Cn1c(=O)n(-c2cccc(C)c2)c(=O)c2c1c1cc(OC)ccc1n2C -24.7%
CSc1ccc(-c2nnn(CC(=O)Nc3sc4c(c3C#N)CCC(C(C)(C)C)C4)n2)cc1 (configuration not stated) -4.89%
CCCCOc1ccc(C(C)NC(=O)CN2C(=O)CSc3ccc(S(=O)(=O)N4CCOCC4)cc32)cc1 (configuration not stated) -24.8%
CCCCN=C(N)N=C(N)N 1.88%
COc1cccc(-c2cc(C(F)(F)F)nc(NCCc3ccc(OC)c(OC)c3)n2)c1 -34.8%
Cc1c(C(=O)OC2CCCCC2)[nH]c2c1C(=O)CC(c1ccc(F)cc1)C2 (configuration not stated) -20.6%
COc1ccc(-c2[nH]nc3nc(-c4cc(Br)ccc4OC)cc(C(=O)O)c23)cc1 -8.99%
O=C(CN1CCCN(Cc2cccc(Cl)c2)S1(=O)=O)Nc1ccc2c(c1)OCCO2 -14.1%
